From article PMC4336329 (PLoS ONE, 2015)
The whole screen tested about 310,000 compounds, of which about 14,000 (4.5%) showed an effect of 50% or more. The effect is printed as a negative number. Some of the results follow.

Each compound was assayed against human ether-à-go-go-related gene (hERG) potassium channel (human, UniProt Q12809) (assay: primary screen, population patch clamp on CHO cells stably expressing hERG).
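Also: peak tail current of the secondary pulse compared with the same well before compound.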

human ether-à-go-go-related gene (hERG) potassium channel, sequence (Q12809 whole entry, looked up): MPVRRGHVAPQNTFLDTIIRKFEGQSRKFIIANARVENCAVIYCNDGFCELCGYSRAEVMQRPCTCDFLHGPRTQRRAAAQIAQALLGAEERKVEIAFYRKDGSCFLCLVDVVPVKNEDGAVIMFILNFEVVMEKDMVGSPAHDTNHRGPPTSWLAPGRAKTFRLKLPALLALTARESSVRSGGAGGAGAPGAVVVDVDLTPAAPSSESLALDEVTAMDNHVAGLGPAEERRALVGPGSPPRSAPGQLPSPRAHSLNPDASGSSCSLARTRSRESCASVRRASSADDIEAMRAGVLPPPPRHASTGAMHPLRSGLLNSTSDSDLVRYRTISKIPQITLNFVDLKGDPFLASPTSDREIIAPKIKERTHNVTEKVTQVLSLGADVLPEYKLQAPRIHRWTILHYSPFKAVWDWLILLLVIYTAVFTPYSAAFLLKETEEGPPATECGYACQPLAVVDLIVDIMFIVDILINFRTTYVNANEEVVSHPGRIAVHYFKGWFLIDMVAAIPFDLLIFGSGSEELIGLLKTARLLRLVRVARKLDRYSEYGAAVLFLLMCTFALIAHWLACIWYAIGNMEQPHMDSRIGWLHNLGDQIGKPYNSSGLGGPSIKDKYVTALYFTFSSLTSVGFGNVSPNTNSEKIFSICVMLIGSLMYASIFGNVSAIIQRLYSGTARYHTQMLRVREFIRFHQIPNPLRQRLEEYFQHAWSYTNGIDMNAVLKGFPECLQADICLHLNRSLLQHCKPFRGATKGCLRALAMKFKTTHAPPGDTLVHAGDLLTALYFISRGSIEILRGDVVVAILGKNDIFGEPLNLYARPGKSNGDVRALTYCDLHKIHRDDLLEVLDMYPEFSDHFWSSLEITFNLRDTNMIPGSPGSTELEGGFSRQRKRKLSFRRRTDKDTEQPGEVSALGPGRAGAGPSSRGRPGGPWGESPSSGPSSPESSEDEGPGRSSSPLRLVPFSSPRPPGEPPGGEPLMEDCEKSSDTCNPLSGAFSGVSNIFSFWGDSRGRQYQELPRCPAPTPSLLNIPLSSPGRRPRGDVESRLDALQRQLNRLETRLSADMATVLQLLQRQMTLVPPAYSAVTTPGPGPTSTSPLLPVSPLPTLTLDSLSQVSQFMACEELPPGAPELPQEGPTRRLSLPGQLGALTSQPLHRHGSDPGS

| SMILES | hERG current change (%, negative = inhibition) at 10uM [%] |
| --- | --- |
| CCOc1ccccc1NC(=O)CCNS(=O)(=O)c1cccc2nsnc12 | -2.99 |
| Cc1cc(NC(=O)CC(C)C)c(=O)n(Cc2cccc(F)c2)c1 | -2.84 |
| CCOC(OCC)c1cn(Cc2ccc3c(c2)C(=O)c2ccccc2C3=O)nn1 | 12.6 |
| Cc1ccc(S(=O)(=O)NNC(=O)c2ccncc2)cc1[N+](=O)[O-] | 44.8 |
| O=C(CSc1nnc(C2CC2)n1Cc1ccccc1)c1ccc(S(=O)(=O)N2CCOCC2)cc1 | -23 |
| COc1cc(C(=O)Nc2ccc3c(c2)ncn3C)cc(OC)c1OC | 16.2 |
| O=C(CNC(=S)NC(=O)c1ccccc1)c1ccccc1 | -4.68 |
| O=C(NCc1ccccc1F)C1CCCN1C(=O)Nc1ccc(Cl)cc1 (centres unmarked) | 17.2 |
| COc1ccc(-c2nnc3ccc(SCC(=O)N4CCCC4)nn23)cc1 | -15.2 |
| CCCc1nnc(SCC(=O)Nc2nccs2)o1 | 9.99 |
| O=C(COC(=O)C1CC(=O)N(Cc2ccccc2)C1)Nc1ccc2c(c1)OCO2 (centres unmarked) | 5.98 |
| Cc1cc(Cl)ccc1OCC(=O)N/N=C1\CC2C=CCC12 (centres unmarked) | -19.7 |
| Cc1ccc(S(=O)(=O)N2CCN(S(=O)(=O)N3CCCCC3)CC2)cc1C | 2.99 |
| CCc1nc2nc(C)c(NS(=O)(=O)c3ccc(Br)s3)c(=O)n2[nH]1 | 13.8 |
| CN(C)C(=O)C1C2NC(=S)N(c3cccc(Cl)c3)C1(C)Oc1ccc(Cl)cc12 (centres unmarked) | 29.5 |
| O=C(NCCCn1ccnc1)c1cnn2c1NC(c1ccccc1)CC2C(F)(F)F (centres unmarked) | -25.7 |
| CC1Cc2ccccc2N1C(=O)CSc1nnc(-c2ccc(S(=O)(=O)N3CCCC3)cc2)n1C (centres unmarked) | -16.5 |
| CN1C(=S)SC(N(O)C(=O)Nc2ccccc2)C1(C)C (centres unmarked) | -1.77 |
| Cc1cccc(Cn2cccc2/C=C2/C(=N)N3C=CSC3=NC2=O)c1 | -1.72 |
| Cc1ccc(C(=O)N2CCN(C3c4cccc5cccc(c45)C3NS(=O)(=O)c3ccccc3)CC2)cc1 (centres unmarked) | 2.23 |
| CCCOC(=O)c1c(NC(=O)CSc2nc(-c3ccco3)cc(C(F)(F)F)n2)sc(C(=O)OC)c1C | -5.81 |
| Cc1cc(C(=O)Nc2ccon2)c(C)o1 | 14.2 |

| SMILES | hERG current change (%, negative = inhibition) at 10uM [%] |
| --- | --- |
| Cc1nc(N2CCCC2C(=O)O)c2oc3ccccc3c2n1 (centres unmarked) | 14.7 |
| CC1CCN(c2ccc3nnc(CCC(=O)N4CCN(c5ccccc5F)CC4)n3n2)CC1 | -62.6 |
| CCc1n[nH]c(=S)n1/N=C/c1ccc(N(CC)CC)cc1 | -0.999 |
| CC(C)(C#CCCCCC#CC(C)(C)[N+](C)(C)C)[N+](C)(C)C.[I-] | 9.62 |
| CCCCNC(=O)O[C@@H]1C[C@H]2CCCC(=O)N3CC[C@@H](C1)[C@@H]23 | 8.77 |
| COc1ccc([C@@H]2CC(=O)c3c(O)cc(O[C@@H]4O[C@H](CO[C@@H]5O[C@@H](C)[C@H](O)[C@@H](O)[C@H]5O)[C@@H](O)[C@H](O)[C@H]4O)cc3O2)cc1O | 7.74 |
| COc1ccc(CCN(C)C2CCCN(C(=O)CCSC)C2)cc1OC (centres unmarked) | -57.2 |
| COc1ccc(OC)c(NC(=O)c2sc3nc(C)cc(C)c3c2N)c1 | 23.2 |
| CC(=O)c1cccc(NS(=O)(=O)c2ccc(C(=O)Nc3ccccc3)cc2)c1 | 5.75 |
| COCCOc1cc2ncnc(N3CCC(C(=O)O)CC3)c2cc1OCCOC | 4.85 |
| Cc1cc(/C=N/NC(=O)c2ccccn2)c(C)n1-c1cccc([N+](=O)[O-])c1 | 8.4 |
| Cc1ccccc1CSCC(=O)NC1CCCC1 | 8.23 |
| C=CCOc1nc2sc(C)c(C)c2c(=O)n1-c1ccccc1 | 0.693 |
| c1ccc(-c2nnc(-c3ccccn3)c(-c3ccccn3)n2)nc1 | 6.15 |
| Cc1cc(C)cc(NCCC#N)c1 | 3.22 |
| CCOC(=O)c1sc(N(Cc2ccccc2)C(=O)COC(=O)c2cnccn2)nc1C | 0.26 |
| NC(=O)CSc1nc(C2CC2)nc2sc3c(c12)CCCC3 | 55.9 |
| O=[N+]([O-])c1cccc(CNC2CCCCCC2)c1 | -3.47 |
| COc1cc(Nc2ccccn2)cc(C(=O)Nc2cccc(C(F)(F)F)c2)c1 | -2.6 |
| CCNC(=S)N1CCN(c2ccccn2)CC1 | 11.6 |
| COc1cccc(/C=C/C(=O)OCC(=O)c2cc(C)n(CC3CCCO3)c2C)c1OC (centres unmarked) | 6.95 |
| COC(C(=O)N/N=C(\C)c1ccc(C)cc1)c1ccccc1 (centres unmarked) | 5.03 |
